Test results published in publication PMC12136788.
The list shows a part of the results.

B1: chr21:36753219:36753320:-|3pUTR|ENSG00000159267|msi1|FALSE|bound_elsewhere (ssRNA)
RNA: GGGAGUUCUACAGUCCGACGAUCGUUUCAGAUUUACUCUGAAAUGUGGAGCAUUCCUGCAAGACUGUGCAGCUCACGGAAUAUAGAAGACAUGGCAUUUUACUCAGAAGUCAUAAGUUUUUGCCCCCCUCAUUUACCUCGUAUCAACAGAGGAUUGAGCAUCA
B2: ENSG00000070961:be:win_2551|CDS|ENSG00000070961|bound_else_gene|NA|bound_elsewhere_windowed (ssRNA)
RNA: GGGAGUUCUACAGUCCGACGAUCAGCAUCUCAAAAUUCCUUCAGUUCCAACUUACUGUUAAUGUAGUAGCAGUGAUUGUUGCUUUUACGGGCGCCUGCAUUACUCAAGACUCACCGCUUAAGGCUGUGCAGAUGCUGUGGGUACAACAGAGGAUUGAGCAUCA
B3: chr16:70157515:70157662:+|3pUTR|ENSG00000090857|msi1|total|mutant (ssRNA)
RNA: GGGAGUUCUACAGUCCGACGAUCCUCCCUAUAAUUUUCUUCAUCUCUUGCUAAUCUCUAUAAUAAGGUUGCUUUUUCUUUCUCCGUUGAGUAAACAAGUAAGCCACAGUGUUUGAAAGGGAAAAACCAUAUUGCCUUGUGUGUCAACAGAGGAUUGAGCAUCA
B4: chr18:5392435:5392536:-|3pUTR|ENSG00000082397|msi1|FALSE|unique (ssRNA)
RNA: GGGAGUUCUACAGUCCGACGAUCAAGCCUUAAACUGUACAGAAUUUCCACUGUAAUUAAAACUAUUUAGUGUUAGUUAUAAAUAGCCUUCAAAAAGAGAGAUUCUCCAUUACACGAUCACCUGCAUCACAGCCCAUGGUGAAUCAACAGAGGAUUGAGCAUCA
B5: chr1:149903635:149903737:-|3pUTR|ENSG00000159164|unk|total|mutant (ssRNA)
RNA: GGGAGUUCUACAGUCCGACGAUCGGCUGCUUUCUUUGGUGCCCUCCCCUCACCCCACUGCCGCUGUGACGUGUUGCCGUUUUCCGAUGUUUGUAAAAUGUUUAAAAAAAUGUUAAAAGGAAAAAAGUGAAAAUAACAAAAAAGCAACAGAGGAUUGAGCAUCA
B6: chr8:76864132:76864233:+|CDS|ENSG00000091656|msi1|FALSE|bound_elsewhere (ssRNA)
RNA: GGGAGUUCUACAGUCCGACGAUCUCAAGCUUGCACAAAGAGAAAACAAUCAAACAAGCAAUGAGAAAUGCCAAAGAGCAUGUUAGAUUAUUACCUCACUCAGUCUGCUCCCCUAAUCCUAACACCACAUCUACCUCGCAGUCUCAACAGAGGAUUGAGCAUCA
B7: chr7:152649051:152649153:-|CDS|ENSG00000196584|unk|total|mutant (ssRNA)
RNA: GGGAGUUCUACAGUCCGACGAUCAGCUCUGAAGAAAUAAUCAAAUACUGCCUGGGAAGAUUUUUUUUGGUGUACUGCAGCCGCCGCACCCACUUACUUCUUACACUUUACUCACCCGAAAGUAUGUUUUGCCGUCACCCAUCUCAACAGAGGAUUGAGCAUCA
B8: chr22:40861067:40861994:-|CDS|ENSG00000172404|control|control|control (ssRNA)
RNA: GGGAGUUCUACAGUCCGACGAUCGAAAGUGAUCAAGAAAGAGAAGCUGAAGAUAAUGGAGAGUUGACAUUUUUUCUUGUAAAUAGUGUGGCCAAUGAAGAGGGCUUUGCAAAAGAAUGCAGCUGGAGAACACAGUCAUUCAACCAACAGAGGAUUGAGCAUCA
B9: chr6:109481629:109481730:-|CDS|ENSG00000112365|unk|total|mutant (ssRNA)
RNA: GGGAGUUCUACAGUCCGACGAUCGCUCAGUUCUUAAAAGUCUAUGACCUGGUAAAGGCUUACACAGACUUCCAAAAUAAUCACCGCUCCCCAAAGCCAACAACUUUGAACACUGCUGGUGCCCCAGUGGUUGUUAUCUCUAAUCAACAGAGGAUUGAGCAUCA
B10: chr6:145382534:145384023:-|three_prime_utr|ENSG00000112425|control|control|control (ssRNA)
RNA: GGGAGUUCUACAGUCCGACGAUCUCAACAUGAUUUAACAGAUCUAUAUGUUAAAGGAGAAAAAGAUAUGUGGAUGCUAUCAAUAGUAGCUGAAAAGCAUUUUCAGAAAUCUGUAAGUAGAGGAAAUGUAUUCAUAUGUUUCUACAACAGAGGAUUGAGCAUCA
B11: chr17:29262523:29262623:-|3pUTR|ENSG00000108256|msi1_unk|FALSE|overlapping (ssRNA)
RNA: GGGAGUUCUACAGUCCGACGAUCACUUUGACUGAUAUUGUAAUUUUCAAAUGUAUAAUAUGUUUACAGAUGUGCCCUGCAUUUAGUCUGCCUUGUUCCUAUUUUGAUUUUUGUUGAGUCUCCUGCCUGCUUGCCAAAAGCUAGCAACAGAGGAUUGAGCAUCA
B12: chr12:6347307:6347408:-|3pUTR|ENSG00000111319|msi1|FALSE|unique (ssRNA)
RNA: GGGAGUUCUACAGUCCGACGAUCGUCUGCUCCUCCUCUUGAACUUGGGUGGGAAACCCCACCCAAAAGCCCCCUUUGUUACUUAGGCAAUUCCCCUUCCCUGACUCCCGAGGGCUAGGGCUAGAGCAGACCCGGGUAAGUAAACAACAGAGGAUUGAGCAUCA
B13: chr14:92163265:92163366:+|3pUTR|ENSG00000165934|msi1|FALSE|bound_elsewhere (ssRNA)
RNA: GGGAGUUCUACAGUCCGACGAUCUAAUAUCAGACUCGAAUUACUAUUUCAUUCUAUUUCAAAUGCUUAUAAAGCUACUAUUGUAGAUUAUAGUGUUAAUGCAAAGUUUACAGACUUUUGAUAUGGAAAACCAGAUAAAACAAUCAACAGAGGAUUGAGCAUCA
B14: ENSG00000198589:be:win_3351|CDS|ENSG00000198589|bound_else_gene|NA|bound_elsewhere_windowed (ssRNA)
RNA: GGGAGUUCUACAGUCCGACGAUCCAGUCCUACUGAGGAAGCUAAUCUACCCACAGAGCUCCAAGAUAACAGUUUGUCUCCAGCUGCAUCUGAAGCCGGUGAAAAACUGGACAUGUUUGGUAAUGAUGACAAAUUAAUAUUUCACAACAGAGGAUUGAGCAUCA
B15: chr17:5489330:5489445:+|CDS|ENSG00000167842|unk|total|mutant (ssRNA)
RNA: GGGAGUUCUACAGUCCGACGAUCACGUUGACUUUCUUUGAUGAGCUUCAUAAUGUUGGCAGAGAUCAUGGGACCCGUGAUUUCCGGGAGAGUUCCGUAUCCCUGGUUCAGAACUCCAGAAAACUACAGAACAUCCGAGACAAUCAACAGAGGAUUGAGCAUCA
B16: chr12:54350855:54350965:+|3pUTR|ENSG00000111481|msi1|total|mutant (ssRNA)
RNA: GGGAGUUCUACAGUCCGACGAUCUUGCCCUGACAUUUUUGUAAAUUCUGUGCCCUUUGCUGCCGCUACACUUCAGAUUAAAGCCGGAGAAAGAAUGUGCUGAGUGUUUUCCUCCCUUUGCCUCUACCUGGCCCUCAUCCCAACCAACAGAGGAUUGAGCAUCA
B17: chr7:128862928:128863052:+|CDS|ENSG00000128524|unk|FALSE|unique (ssRNA)
RNA: GGGAGUUCUACAGUCCGACGAUCUAAGCUCAUCGCAGUGAUCGGAGACGAGGACACGGUGACUGGUUUCCUGCUGGGCGGCAUAGGGGAGCUUAACAAGAACCGCCAUCCCAAUUUCCUGGUGGUGGAGAAGGAUACAACCAUCAACAGAGGAUUGAGCAUCA
B18: ENSG00000198589:be:win_2051|CDS|ENSG00000198589|bound_else_gene|NA|bound_elsewhere_windowed (ssRNA)
RNA: GGGAGUUCUACAGUCCGACGAUCUACUGACUAUGCAUGAGGAUGACAAUCUAAUGGAUGUCCUACAGCUGCUUGUUGCAUUAAUGUCAGAACACCCUAACUCUAUGAUUCCUGCUUUUGACCAAAGGAAUGGGUUACGUGUUACAACAGAGGAUUGAGCAUCA
B19: chr4:143221337:143221438:+|3pUTR|ENSG00000170185|unk|FALSE|unique (ssRNA)
RNA: GGGAGUUCUACAGUCCGACGAUCUUGAAAGGUAAUAGAUUUUCCAGAAGUAAAAUCUGAUGGUUCUAAAUCAAUCAAUGUGAUAGUUCAUUUUUAACUCUUAGAAGAAUUCAGAGGAAAUUAACCCAGCUAAGUAAAAAAUCUCAACAGAGGAUUGAGCAUCA
B20: chr5:138511037:138511180:-|CDS|ENSG00000120705|unk|total|mutant (ssRNA)
RNA: GGGAGUUCUACAGUCCGACGAUCCACGGGCAAGUACUGUUUUGGCGUUGAAGAUACACUAAAGGCUUUGGAAAUGGGAGCUGCCGAAAUUCUAACCGUCUAUGAAAAUCUGGAUAUAAUGAGAUAUGUUCUUCAUUGCCAAGGCAACAGAGGAUUGAGCAUCA
B21: chr10:58277235:58277315:+|CDS|ENSG00000122873|msi1_unk|total|mutant (ssRNA)
RNA: GGGAGUUCUACAGUCCGACGAUCUAAAGAUCAUCGAAAUAAAGCUAUGAUAAACCUUCACAUCCAGAAAGACAACCCCAAGACCGUACAUGCUUUUGACAUGGAGGAUUUGGGAGAUAAAGCUGUGUACUGCCGUUGUUGGAGCAACAGAGGAUUGAGCAUCA
B22: ENSG00000124766:be:win_3151|3pUTR|ENSG00000124766|bound_else_gene|NA|bound_elsewhere_windowed (ssRNA)
RNA: GGGAGUUCUACAGUCCGACGAUCUUUCUCAGUGUAUUUUUGUAAAAAAUAUAUAAAGGGGGUGUUAAUCGGUGUAAAUCGCUGUUUGGAUUUCCUGAUUUUAUAACAGGGCGGCUGGUUAAUAUCUCACACAGUUUAAAAAAUCAACAGAGGAUUGAGCAUCA

The binders below were run against T1, UNK ZnF1-6 (called full-length) (human, UniProt Q9C0B0 30-357) (assay: nsRBNS (natural sequence RNA bind-n-seq); RBNS binding buffer (assumed for nsRBNS): 25 mM Tris pH 7.5, 150 mM KCl, 3 mM MgCl2, 0.01% Triton X-100, 500 ug/ml BSA, 20 U/ml SUPERase-In, 4 C; UNK is unkempt and MSI1 is Musashi-1; names of the RNAs are library labels; protein concentration not given here; high values mean tight binding).
T1 sequence: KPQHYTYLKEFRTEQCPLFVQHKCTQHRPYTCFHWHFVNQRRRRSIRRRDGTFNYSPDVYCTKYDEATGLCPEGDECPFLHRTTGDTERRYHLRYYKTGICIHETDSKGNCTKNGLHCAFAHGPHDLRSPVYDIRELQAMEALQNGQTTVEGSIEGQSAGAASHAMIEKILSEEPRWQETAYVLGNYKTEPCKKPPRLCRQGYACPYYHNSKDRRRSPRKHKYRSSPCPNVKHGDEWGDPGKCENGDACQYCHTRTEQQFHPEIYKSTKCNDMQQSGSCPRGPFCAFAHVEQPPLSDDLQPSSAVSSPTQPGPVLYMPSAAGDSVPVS
Work on B1 yielded a binding signal of 0.445 enrichment R.
In the case of B2, the binding signal is reported as 0.519 enrichment R.
B3 was tested, and the binding signal was 0.629 enrichment R.
Work on B4 yielded a binding signal of 1.27 enrichment R.
B5 was tested, and the binding signal was 0.594 enrichment R.
B6 was tested, and the binding signal was 0.638 enrichment R.
B7 showed a binding signal of 1.12 enrichment R.
In the case of B8, the binding signal is reported as 0.645 enrichment R.
Work on B9 yielded a binding signal of 0.451 enrichment R.
B10 gave a binding signal of 0.457 enrichment R.
B11 gave a binding signal of 0.807 enrichment R.
In the case of B12, the binding signal is reported as 1.13 enrichment R.
B13 was tested, and the binding signal was 0.421 enrichment R.
Work on B14 yielded a binding signal of 0.341 enrichment R.
B15 showed a binding signal of 0.491 enrichment R.
Work on B16 yielded a binding signal of 0.678 enrichment R.
B17 showed a binding signal of 0.777 enrichment R.
For B18, the binding signal was 0.35 enrichment R.
With B19 the binding signal was 0.783 enrichment R.
B20 was tested, and the binding signal was 0.633 enrichment R.
For B21, the binding signal was 0.467 enrichment R.
Binder B22 has a binding signal of 0.577 enrichment R.
